Laboratory results from PubChem BioAssay AID1461 (National Center for Advancing Translational Sciences (NCATS), 2008).
Out of some 220,000 compounds screened, about 2,300 (1%) were called active. The inconclusive results got no clear call from the source; some entries with a clear call stand among them for comparison. Calls come from the whole dose curve; as a rule, active = well fitted inhibition curve with a large enough effect; inconclusive = small, poorly fitted or top-dose-only effect, or effect the other way; inactive = no such curve, though single readings can be large or run the other way. No potency is given beside an inconclusive call; the fits are too rough.

Target: Neuropeptide S receptor (Homo sapiens) (UniProt Q6W5P4)
Experiment: qHTS Assay for Antagonists of the Neuropeptide S Receptor: cAMP Signal Transduction; note: nearly all actives have a fitted effect of over 50% in size
Settings: CHO-NPSR cells, cAMP TR-FRET, antagonist mode; activity change, negative = inhibition: at 38.3 µM (top of the series) unless noted
Text: NIH Chemical Genomics Center [NCGC] NIH Molecular Libraries Probe Production centers Network [MLPCN] MLPCN Grant: X01-DA026210-01 Assay Submitter (PI): Heilig, Markus Alexander NCGC Assay Overview: Neuropeptide S receptor (NPSR), previously known as GPR154, is a recently de-orphanized G protein coupled receptor. Its endogenous ligand is the 20 amino acids peptide Neuropeptide S (NPS). […] NPS and its receptor are found in various tissues. Specifically they are highly expressed in brain areas that have been implicated in modulation of arousal, stress and anxiety. Central administration of NPS in mice produces an unusual profile of activity by inducing wakefulness and arousal, while at the same time suppressing anxiety. Therefore, NPSR may represent a novel drug target for the treatment of sleep and anxiety disorders. To identify NPSR antagonists, we developed a cell-based cAMP assay. NPS can stimulate the production of cAMP in Chinese hamster ovary cells stably expressing NPS receptor. This change in intracellular cAMP level can be detected by a homogeneous LANCE cAMP assay based on the TR-FRET (time resolved fluorescence resonance energy transfer) between a europium-labeled cAMP tracer complex and a cAMP-specific antibody labeled with Alexa Fluor 647. The europium-labeled cAMP tracer complex is formed by the tight interaction between Biotin-cAMP (b-cAMP) and streptavidin labeled with Europium-W8044 chelate (Eu-SA). Light pulse at 320 nm excites the europium of the cAMP tracer and the energy emitted is transferred to the Alexa molecule bound to the cAMP antibody, generating a TR-FRET signal at 665 nm. Residual energy from the europium will produce a light at 620 nm. The native unlabeled cAMP from cell lysates competes with the europium-cAMP tracer for antibody binding and reversely reduces the emission signal of Alexa by interrupting FRET between the two labeled molecules. Both emission signals from the FRET donor (620 nm) and the acceptor (665 nm) can be detected by a plate reader in the TRF mode. Expression of result in fluorescence ratio (665 nm/620 nm) helps to normalize differences due to cell density and reagent dispensing. This assay was successfully optimized to a 1536-well plate format.
NCGC Assay Protocol Summary: A Chinese hamster ovary (CHO) cell line stably expressing the NPS receptor (CHO-NPSR) was obtained from Dr. Heilig lab at NIAAA and maintained in F-12 Kaighn's media (Invitrogen, Carlsbad, CA, 21127) supplemented with 10 % FBS, 100 units/ml penicillin, 100 ug/ml streptomycin and 250 ug/ml geneticin at 37C, 5% CO2 in a humidified atmosphere. Before the assay, aliquots of cells were frozen and stored at -135C. The assay was performed in 1536-well format. Data are reported for both the ratio of the two emission wavelengths, and also for the component 'donor' channel, Em2=620. Data were normalized to the controls for basal activity (DMSO only) and 100% inhibition (No NPS control). IC50 values were determined from concentration-response data modeled with the standard Hill equation. NPS 1536-well assay protocol: (1) Fresh or frozen CHO-NPSR cells were suspended in F-12 Kaighn's media supplemented with 10 % FBS, 100 units/ml penicillin and 100 ug/ml streptomycin. Cells were plated at 4 ul/well (1200 cells) to white, tissue culture treated 1536-well plates, and then cultured at 37C, 5 % CO2 for 16 to 30 hours. (2) Add 23 nl/well of compound in DMSO solution. The final titration for each compound was between 0.6 nM and 46 uM. (3) Add 1 ul of stimulation reagent (1X HBSS buffer, 5 mM HEPES, 0.1% BSA, 500 uM RO-201724 (Sigma-Aldrich, B8279), 1.5% Alexa 647-labeled anti-cAMP antibody (from Perkin Elmer), 100 nM NPS) (4) Incubation at 37C, 5 % CO2 for 60 min. (5) Add 1 ul/well detection reagent. Detection reagent was prepared by adding biotin labeled cAMP (4%), streptavidin labeled with Europium-W8044 chelate (1.33%) and TritonX-100 (1%) to detection buffer. […]
% is set by controls: 0 for no effect and ±100 for the full control effect; potency is the fitted concentration of half-maximal effect; tags give direction and shape of the fitted curve.

Sequence of UniProt Q6W5P4 (Q6W5P4 whole entry, looked up): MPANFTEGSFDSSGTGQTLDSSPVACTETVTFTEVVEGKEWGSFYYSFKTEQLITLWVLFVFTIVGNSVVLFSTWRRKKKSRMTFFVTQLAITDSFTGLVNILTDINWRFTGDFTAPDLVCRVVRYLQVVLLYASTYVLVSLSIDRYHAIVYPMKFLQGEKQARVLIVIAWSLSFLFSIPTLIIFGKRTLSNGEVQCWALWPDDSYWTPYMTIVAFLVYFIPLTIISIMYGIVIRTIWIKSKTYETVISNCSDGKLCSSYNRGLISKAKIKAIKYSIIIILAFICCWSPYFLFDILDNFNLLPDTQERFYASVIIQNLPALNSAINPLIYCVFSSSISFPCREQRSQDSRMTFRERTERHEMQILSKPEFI

| SMILES | Potency | activity change, negative = inhibition |
| --- | --- | --- |
| Cc1nonc1NC(=O)CSc1nc(C2CCCCC2)nc2ccccc12 | inconclusive [inhibitor, single point] |  |
| CCOC(=O)c1ccccc1NC(=S)N1CC(C)CC(C)C1 (stereo unspecified) |  | inactive: -14.8% |
| Oc1ccc(C=Nc2ccccc2-c2nc3ccccc3[nH]2)c(O)c1 | inconclusive [activator, single point] |  |
| Cn1ccnc1Sc1ccccc1[N+](=O)[O-] |  | inactive: 17.1% |
| Cc1cc(Cl)ccc1NC(=S)NCCN1CCOCC1 |  | inactive: 5.8% |
| COc1ccc2c(C)cc(SCC(=O)c3ccc4c(c3)OCO4)nc2c1 | inconclusive [inhibitor, partial curve] |  |
| CCc1nnc(NC(=O)c2cc3ccccc3oc2=O)s1 | inconclusive [inhibitor, single point] |  |
| CCc1ccc(N(C(=O)Cc2cccs2)C(C(=O)NC2CCCCC2)c2cn(C)nc2C)cc1 (stereo unspecified) | inconclusive [inhibitor, single point] |  |
| C=C(C)COc1ccc(-c2n[nH]c(C)c2-c2ccccc2OC)c(O)c1 | inconclusive [inhibitor, single point] |  |
| COc1ccc(Cl)cc1NC(=O)C(OC)c1ccccc1 (stereo unspecified) | inconclusive [inhibitor, single point] |  |
| CCc1nnc(NC(=O)c2ccc(S(=O)(=O)N(CCOC)CCOC)cc2)o1 |  | inactive: -5.58% [at 46.1 µM] |
| Cc1ccc2[nH]c(=O)c(CN(CCO)Cc3nnnn3CCc3ccccc3)cc2c1 |  | inactive: -11.9% [at 46.1 µM] |
| CCOC(CNC(=O)c1cccn2c(=O)c3cc(Cl)ccc3nc12)OCC | inconclusive [inhibitor, single point] |  |
| O=C(CSc1nc2ccccc2o1)Nc1ccccc1N1CCOCC1 | inconclusive [inhibitor, single point] |  |
| Cc1ccc(S(=O)(=O)N(CC(=O)N/N=C/c2cccc(C)c2)c2cccc3cccnc23)cc1 | inconclusive [inhibitor, single point] |  |
| CC(=O)Nc1ccc(NC(=O)C2CC(=O)N(c3cccc(C)c3C)C2)cc1 (stereo unspecified) | inconclusive [inhibitor, full curve] |  |
| CC(C)c1cc(NC(=O)CCl)on1 |  | inactive: -10.5% |
| Cc1cc(C=O)c(C)n1-c1ccc(NC2CCCCC2)c([N+](=O)[O-])c1 | inconclusive [inhibitor, partial curve] |  |
| COc1ccc(N(C(=O)Nc2ccc(Cl)cc2)C2=NCCC2)cc1 | inconclusive [inhibitor, single point] |  |
| CCOC(=O)c1sc(NC(=O)CSc2nnc(Cc3ccccc3)o2)c(C(=O)OCC)c1C | inconclusive [inhibitor, single point] |  |
| COc1ccc(OC)c(C2C(C(C)=O)=C(O)C(=O)N2c2ccc(O)cc2)c1 (stereo unspecified) | inconclusive [inhibitor, partial curve] |  |
| O=c1c(Cl)c(NCCCO)cnn1-c1nc2ccccc2[nH]1 | inconclusive [inhibitor, single point] |  |
| Cc1ccsc1C(=O)N(c1nc2ccccc2s1)c1c(C)cccc1C | inconclusive [inhibitor, single point] |  |

| SMILES | Potency | activity change, negative = inhibition |
| --- | --- | --- |
| Cc1ccsc1C(=O)NNC(=S)NCC(C)C |  | inactive: -6.68% [at 46.1 µM] |
| Cc1ccc(S(=O)(=O)N(C)C)cc1NC(=O)CN1CCN(Cc2ccccc2)CC1 |  | inactive: 6.41% |
| CCOc1ccc2nc3c(cc2c1)CN(CCOC)C(=NCCOC)S3 | inconclusive [inhibitor, single point] |  |
| O=C(CCl)NNC(=O)c1c(O)c2ccccc2[nH]c1=O | inconclusive [activator, single point] |  |
| CC(=O)c1cccc(-n2nnnc2SCC(=O)Nc2ccccc2N2CCCCC2)c1 | inconclusive [inhibitor, single point] |  |
| Cc1cccc(C)c1NC1=NC(C)(C)N=C(N)N1 | inconclusive [inhibitor, single point] |  |
| CCOC(=O)c1c(NC(=O)Nc2ccc(F)cc2)sc2c1CCN(C)C2 | inconclusive [activator, partial curve] |  |
| O=C(Nc1cccc(C(F)(F)F)c1)c1cc2c(=O)c3ccccc3oc2nc1C(F)(F)F | inconclusive [inhibitor, partial curve] |  |
| CCCc1cc(=O)[nH]c(SCC(=O)Nc2sc3c(c2C#N)CCC(C)C3)n1 (stereo unspecified) |  | inactive: -1.21% |
| O=C(NC(O)C(=O)c1cccs1)c1cccnc1 (stereo unspecified) |  | inactive: 2.47% [at 46.1 µM] |
| O=C(COC(=O)c1ccccc1NC(=O)c1ccccc1)c1ccc([N+](=O)[O-])cc1 |  | inactive: -14.5% [at 46.1 µM] |
| Cc1c(C(=O)NCc2ccccc2)oc2ccc(S(=O)(=O)N3CCCC3)cc12 |  | inactive: -25.5% [at 46.1 µM] |
| COc1cc(C=C2C(=O)c3ccccc3C2=O)cc(OC)c1OC |  | inactive: 6.31% |
| CNC(=O)CCCc1nc(-c2ccccc2Cl)no1 | inconclusive [inhibitor, single point] |  |
| CCCOc1cccc(CN2CCCCC2c2cccnc2)c1 (stereo unspecified) | inconclusive [inhibitor, single point] |  |
| CC(C)(C)C(=O)NC(NC(=S)Nc1sc2c(c1C#N)CCCC2)C(Cl)(Cl)Cl (stereo unspecified) | inconclusive [inhibitor, single point] |  |
| C/C(=N\NC(=O)CSc1nc2ccccc2s1)c1ccco1 |  | inactive: 6.01% |
| CCO[C@@H]1OC(C(=O)N2CCN(Cc3ccc4c(c3)OCO4)CC2)=C[C@H](c2csc3ccccc23)[C@H]1CCCO | inconclusive [activator, partial curve] |  |
| Cn1c2ccccc2c(=O)c2c(=O)n(Cc3ccco3)c(-c3ccc(C(C)(C)C)cc3)nc21 | inconclusive [inhibitor, single point] |  |
| COc1ccc(CCC(=O)NC(C)C)cc1 |  | inactive: 9.77% |
| O=C(/C=C/c1ccccc1)Oc1cccc2cccnc12 | inconclusive [activator, single point] |  |
| CCOC(=O)c1sc2nc(C)nc(SCC(=O)NC(C)CCc3ccccc3)c2c1C (stereo unspecified) |  | inactive: -50.9% |
| Cc1nc2c(Br)cc(Br)cc2cc1O | inconclusive [inhibitor, partial curve, poor fit] |  |
